According to PubChem BioAssay AID485344 (National Center for Advancing Translational Sciences (NCATS), 2010):
Screen size: about 340,000 compounds; about 6,900 (2%) were called active. No stated cut-off is given here; in the data, active means inhibition above about 30%; inactive means below that, where a call was filed. The list shows a part of the results, in another mix than the full data. Entries without a call were filed so in the source.
Further: 0% is about no effect.

What follows are compounds tested against D(2) dopamine receptor (Homo sapiens) (UniProt P14416) (assay: HTS Assay for Allosteric Antagonists of the Human D2 Dopamine Receptor: Primary Screen for Antagonists). Conditions: HEK293 TREx D2 cells, calcium flux, dopamine EC80; at 10 µM; stronger effect = higher value.
Sequence of UniProt P14416 (P14416 whole entry, looked up): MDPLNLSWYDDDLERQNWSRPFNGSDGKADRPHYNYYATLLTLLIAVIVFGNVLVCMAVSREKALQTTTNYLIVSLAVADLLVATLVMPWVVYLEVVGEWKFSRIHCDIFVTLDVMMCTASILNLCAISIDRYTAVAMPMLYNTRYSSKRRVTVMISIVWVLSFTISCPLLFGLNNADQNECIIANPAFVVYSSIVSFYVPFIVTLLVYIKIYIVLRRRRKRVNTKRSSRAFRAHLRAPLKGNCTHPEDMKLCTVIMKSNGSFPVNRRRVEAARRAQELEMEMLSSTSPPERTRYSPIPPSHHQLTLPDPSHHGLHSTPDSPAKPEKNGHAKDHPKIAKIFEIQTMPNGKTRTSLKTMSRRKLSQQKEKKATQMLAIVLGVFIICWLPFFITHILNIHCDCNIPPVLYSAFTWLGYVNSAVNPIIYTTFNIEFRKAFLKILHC
Procedure, shortened: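 Measurement of antagonist activity uses fluorescent calcium dye in inducible HEK293 T-REx D2 cells: 10 s baseline, compound addition with 180 s read, EC80 dopamine addition with a further 180 s read.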
Compound `COc1ccc(CNC(=O)Cc2c(C)c3c(cc(C)c4c(C)coc43)oc2=O)cc1OC` has an inhibition of -15.1%. `Cc1nc2cccnc2n1C1CCN(S(=O)(=O)N(C)C)CC1` showed an inhibition of -5.62%. `N/C(=N\N=C/c1ccc(F)cc1)N/N=C\c1ccc(F)cc1` was tested, and the inhibition was active: 40.3%. Compound `CCOC(=O)c1cc(-c2ccc(C)cc2)n(CC(=O)Nc2ccccc2F)c1C` has an inhibition of 9.69%. In the case of `COc1ccc(Br)c2c1-c1nc(NC(=O)c3ccccc3F)sc1C2`, the inhibition is reported as 0.339%. Compound `COc1ccc(CCCc2nnc(SCC(=O)Nc3cc(C)ccc3C)o2)cc1` has an inhibition of 5.71%. `COC(=O)c1ccccc1NC(=O)c1ccc(COc2cc(C)cc(C)c2)o1` gave an inhibition of 8.38%. In the case of `CCc1ccc(-c2[nH]nc3nc(-c4ccc(OC)cc4)cc(C(=O)NCCCOC)c23)cc1`, the inhibition is reported as -11.2%. `CC(=O)N1CCC2(CC1)OC(=O)C(C)=C2C(=O)Nc1cc(C)ccc1C` showed an inhibition of -5.06%. In the case of `CCOC(=O)c1cc(-c2ccc(C)o2)n[nH]1`, the inhibition is reported as active: 30.4%. `O=C(c1ccccc1Cl)N(Cc1ccco1)c1ccccn1` gave an inhibition of -7.52%. In the case of `CCCN(C(=O)c1cc2ccc3cccnc3c2[nH]1)c1ccc(F)cc1`, the inhibition is reported as 6.76%. `COC(=O)c1sc2cccc(F)c2c1S(=O)(=O)Nc1ccc(N(C)C)cc1` showed an inhibition of -5.05%. Work on `Cc1cc(Br)ccc1NC(=O)Cn1cnc2sc(C)c(S(=O)(=O)N3CCN(C)CC3)c2c1=O` yielded an inhibition of -0.448%. `COc1ccc(-c2nc(SCC(=O)N3CCN(c4ccc(F)cc4)CC3)n[nH]2)cc1` gave an inhibition of 0.583%. `CCCCOc1ccc(CNC(=O)Cc2ccc(NC(=O)N3CCCCc4ccccc43)cc2)cc1` gave an inhibition of 6.34%. Compound `CCn1c(=O)n(-c2ccc(F)cc2)c(=O)c2sc3ccccc3c21` has an inhibition of -4.01%. With `CC(C)(C)OC(=O)N1CCC(c2c(C(=O)N3CCN(c4ccccc4)CC3)cnn2-c2ccccc2)CC1` the inhibition was -1.47%. Work on `CCOC(=O)c1c(Nc2ccc(F)cc2)nnc(-c2ccccc2)c1-c1ccccc1` yielded an inhibition of 2.97%. With `CCOc1ccc(C(=O)NCC(c2ccc3c(c2)OCO3)N2CCN(c3ccccc3F)CC2)cc1` (stereo not given) the inhibition was 13.2%. For `COc1ccc(OC)c(CCNC(=O)c2c(C)nn(-c3ccc(F)cc3)c2-n2cccc2)c1`, the inhibition was 3.75%. `COc1ccc(Cn2nnc(C(=O)Nc3cc(OC)ccc3OC)c2N)cc1` gave an inhibition of -8.45%. Compound `Cc1ccc(NC(=O)Cn2c(=O)n(Cc3ccco3)c(=O)c3ccc(C(=O)NC4CCCC4)cc32)c(C)c1` has an inhibition of 13.4%. Compound `COCCCNC(=O)C1CCN(Cc2nc(-c3ccc(OC)c(OC)c3)oc2C)CC1` has an inhibition of 6.69%. In the case of `Cc1cccc(NC(=O)CCCCCN2C(=O)c3ccccc3C2=O)n1`, the inhibition is reported as active: 34.5%. `CCn1c(=O)cc(SCC(=O)NCCc2cc(OC)ccc2OC)c2ccccc21` showed an inhibition of 4.59%. `CCOc1ccc(NC(=O)c2c(NCc3ccc(C)o3)sc3c2CCC(C)C3)cc1` (stereo not given) gave an inhibition of 10.8%. `Cc1nnc(N2CCC(C(=O)NC3CCCCC3)CC2)c2nn(-c3ccc(Cl)cc3)c(C)c12` showed an inhibition of 0.159%. With `Cn1c(C(=O)NCCCN2CCN(c3ccccc3F)CC2)cc2c(=O)[nH]c3ccccc3c21` the inhibition was active: 105%. `CCC(=O)N1CCc2cc(S(=O)(=O)CCC(=O)N3CCN(c4cc(C)ccc4C)CC3)ccc21` showed an inhibition of 8.09%. Work on `COc1cccc(NC(=O)CSc2nc3ccccc3n2C)c1` yielded an inhibition of -7.77%. Work on `CCOc1ccc(NC(=O)c2c(NC(=O)Cc3ccccc3)sc3c2CCC(C)C3)cc1` (stereo not given) yielded an inhibition of -1.8%. Compound `COc1ccc(OC)c(NC(=O)CN(C)S(=O)(=O)c2ccc3[nH]c4c(c3c2)CCCC4)c1` has an inhibition of -13.2%. Compound `COC(=O)c1ccc(OCC2c3cc(OC)c(OC)cc3CCN2C(=O)C(C)C)cc1` (stereo not given) has an inhibition of 14.9%. `CCOC(=O)COc1ccc(C)cc1C(=O)c1ccn2nc(-c3ccc(C)cc3)cc2n1` gave an inhibition of 7.28%. `O=C(CSc1ncc2c(n1)-c1ccccc1N(Cc1ccccc1)S2(=O)=O)Nc1ccccc1` showed an inhibition of 4.34%. Work on `COCCNC(=O)c1ccc(CSc2nc3ccncc3n2Cc2ccccc2)cc1` yielded an inhibition of 0.625%. With `COc1ccc(-c2cc(C#N)nc(N3CCN(C)CC3)n2)cc1` the inhibition was active: 55%. In the case of `COc1ccc(C)cc1Nc1nc2cc(Cl)c(Cl)cc2nc1-n1nc(C)cc1C`, the inhibition is reported as 9.45%. For `COc1ccc(C)cc1NC(=O)CSc1nc(=O)n(Cc2ccncc2)c2c1CCC2`, the inhibition was -10.9%. Compound `Cc1ccc(NC(=O)Cn2c(=O)n(-c3ccccc3)c(=O)c3c4c(sc32)CCCC4)cc1` has an inhibition of -0.324%. With `COc1ccc(C)cc1NC(=O)NCc1ccc2c(c1)CCN2C(=O)c1ccccc1` the inhibition was 11.3%. `COc1ccc(C(=O)NCCc2sc(-c3ccc(Cl)cc3)nc2C)c(OC)c1` showed an inhibition of -9.6%. In the case of `Cc1ccc(C)c(CN2C(=O)c3ccccc3S(=O)(=O)c3ccc(C(=O)N4CCN(c5ccccn5)CC4)cc32)c1`, the inhibition is reported as 12.2%. For `COc1cc(NC(=O)CN2C(=O)COc3ccc(S(=O)(=O)N4CCCCC4)cc32)cc(OC)c1`, the inhibition was -7.93%. Work on `CCCN1C(=O)C(Cc2nc3ccccc3c(=O)n2-c2ccccc2)c2cc(C)ccc21` (stereo not given) yielded an inhibition of -6.65%. `CCc1cccc(N2C(=O)N(CC(=O)NCc3cccc(OC)c3OC)c3ccccc3S2(=O)=O)c1` was tested, and the inhibition was -2.26%. Work on `Cc1cc(C)n2nc(SCC(=O)Nc3ccccc3C)nc2n1` yielded an inhibition of -0.0415%. In the case of `Cc1ccc(Cl)cc1N1CCN(C(=O)c2cc(S(=O)(=O)N3CCCC3)cn2C)CC1`, the inhibition is reported as -9.7%. With `Cc1ccc(Nc2nnc(-c3ccc(C)c(S(=O)(=O)N4CCOCC4)c3)c3ccccc23)c(C)c1` the inhibition was 22%. In the case of `CCc1nc2nc(C)cc(Nc3ccc(OC)cc3OC)n2n1`, the inhibition is reported as -6.09%. With `CCC(Cc1ccccc1)NC(=O)Cn1ncc2c3ccccc3n(Cc3ccccc3)c2c1=O` (stereo not given) the inhibition was 3.55%. `CCOc1ccc(C(=O)c2cn(Cc3ccc(Cl)cc3)c3cc(OC)c(OC)cc3c2=O)cc1` gave an inhibition of 18.3%. In the case of `Cc1oc(-c2ccc(Cl)cc2)nc1CN1CCC(C(=O)NCCCN2CCN(c3cccc(Cl)c3)CC2)CC1`, the inhibition is reported as -7.59%. `Cc1ccc2c(c1)NC(=O)C(CC(=O)Nc1ccccc1Cl)O2` (stereo not given) gave an inhibition of -1.62%. In the case of `O=C1c2[nH]nc(-c3ccccc3O)c2C(c2ccccc2F)N1Cc1ccncc1` (stereo not given), the inhibition is reported as 12.6%. For `CCOC(=O)Cc1ccc(NC(=O)NCc2cccn2Cc2ccccc2)cc1`, the inhibition was 11.7%. `COc1ccc(-n2c(=O)c3sc4ccccc4c3n(CC(=O)Nc3ccccc3F)c2=O)cc1` was tested, and the inhibition was 2.34%. With `Cc1ccc(NC(=O)CSc2nc(-c3cccs3)nc3cc(=O)[nH]n23)cc1` the inhibition was -2.21%. `COc1ccc(CC(=O)NCC(c2ccc(N(C)C)cc2)N2CCOCC2)cc1` (stereo not given) gave an inhibition of 5.01%. With `Cc1ccc(-n2ncc3c(NCCCn4ccnc4)ncnc32)cc1Cl` the inhibition was 11.1%. Compound `Cc1cc(F)ccc1S(=O)(=O)Nc1ccc2c(c1)CCCN2C(=O)c1cccs1` has an inhibition of -14.2%. Work on `COc1ccc(N2C(=O)C(CC(=O)Nc3ccc(F)cc3)N(Cc3ccc4c(c3)OCO4)C2=O)cc1` (stereo not given) yielded an inhibition of 20.9%. Compound `COC(=O)c1cnc(NCc2ccc(F)cc2)c2ccccc12` has an inhibition of 13.2%. Compound `CCN(CC)C(=O)Cn1c(=O)nc(-c2ccccc2F)c2cc(Cl)ccc21` has an inhibition of 11%. With `CCCNC(=O)N1[C@H](c2ccc(C)s2)[C@@H](C)C(=O)[C@@H](C)[C@@H]1c1ccc(C)s1` the inhibition was 8.29%. Work on `COc1ccc(NC(=O)CSc2nc(-c3ccco3)cc(C(F)(F)F)n2)cc1` yielded an inhibition of -5.05%. `COc1ccc(NC(=O)Cn2c(=O)n(Cc3ccc(C(=O)NCc4ccccc4Cl)cc3)c(=O)c3ccccc32)cc1OC` showed an inhibition of -0.25%. Compound `CCCN1Cc2cccc(C(=O)Nc3cc(C)cc(C)c3)c2C1=O` has an inhibition of -3.91%. Work on `CC(=O)Nc1ccc(C)cc1-c1nc2ccccc2n(CC(=O)Nc2cc(Cl)ccc2C)c1=O` yielded an inhibition of 7.41%. Compound `CCn1c(=O)c(=O)n(CC)c2cc(N3CCCCC3)c(NC(=O)c3cccc(F)c3)cc21` has an inhibition of -28%. `Cc1nnc2c(Nc3cccc(O)c3)nc3ccccc3n12` was tested, and the inhibition was 4.62%. `Cc1cc(=O)oc2cc(OCC(O)CN3CCN(c4ccc(F)cc4)CC3)ccc12` (stereo not given) was tested, and the inhibition was active: 75.9%. With `CCC(C)NC(=O)c1ccc2c(=O)n3c(nc2c1)CCCCC3` (stereo not given) the inhibition was 16.9%. Compound `Cc1ccc(NC(=O)Cn2nnc3sc(-c4ccccc4)cc3c2=O)cc1Cl` has an inhibition of 12.9%. Compound `COc1ccc(C(=O)NCC2(N3CCN(C)CC3)CCCCC2)cc1` has an inhibition of 4.45%. Work on `COC(=O)c1ccc(Cl)cc1NC(=O)N(Cc1ccc(C)o1)C1CCN(C(C)=O)CC1` yielded an inhibition of -8.41%. `CCC(CC)c1nn2c(=O)cc(COc3ccc(NC(=O)c4cccc(Cl)c4)cc3)nc2s1` showed an inhibition of -9.9%. `COc1ccc(C)cc1NS(=O)(=O)c1ccc2c(c1)n(C)c(=O)n2C` gave an inhibition of 4.08%. Work on `CCc1ccc(NCc2cccn2-c2nnc(N3CCCCCC3)s2)cc1` yielded an inhibition of 3.48%. For `CCN1CCN(c2ncc3c(n2)CCN(Cc2ccc(Br)s2)C3)CC1`, the inhibition was 8.56%. `O=C(COC(=O)c1ccc(F)c(S(=O)(=O)N2CCOCC2)c1)c1ccc(Br)cc1` was tested, and the inhibition was active: 36.4%. `O=C(Nc1ccc(OC(F)(F)F)cc1)c1ccc2nc[nH]c2c1` was tested, and the inhibition was active: 61.7%. `COc1ccc(OC)c(-c2cc(C(=O)Nc3cnn(Cc4ccc(Cl)cc4Cl)c3)no2)c1` gave an inhibition of 9.81%. In the case of `CCOc1ccc(NC(=O)CSc2nnc(CNC(=O)c3c(F)cccc3Cl)o2)cc1`, the inhibition is reported as 10.5%. `COc1ccccc1N1CCN(S(=O)(=O)c2c(C)sc3ncn(CC(=O)Nc4ccccc4F)c(=O)c23)CC1` was tested, and the inhibition was -6.94%. Work on `COc1cccc(NC(=O)Cn2c(=O)n(-c3ccc(Cl)cc3)c(=O)c3sc4ccccc4c32)c1` yielded an inhibition of 3.92%. Work on `CCOc1ccc(/C=C/c2nc3ccccc3n2S(=O)(=O)c2ccc(Br)cc2)cc1` yielded an inhibition of 4.2%. `COc1ccc([N+](=O)[O-])cc1NC(=O)Nc1ccccc1` was tested, and the inhibition was active: 37%. Compound `O=C(Cn1c(=O)nc(-c2ccccc2)c2cc(Cl)ccc21)NCCc1ccc(Cl)cc1` has an inhibition of -4.79%. With `Nc1c(-c2nc(-c3ccncc3)no2)nnn1CC(=O)Nc1ccccc1` the inhibition was -3.35%. `COc1ccccc1CNCCSc1nnnn1C` was tested, and the inhibition was -7.02%. `COc1ccc(C(=O)N(Cc2ccco2)Cc2ccco2)cc1` was tested, and the inhibition was 14.7%. Work on `Cc1noc(/C=C/c2ccccc2F)c1S(=O)(=O)N1CCC(C(=O)N(C)Cc2ccco2)CC1` yielded an inhibition of -15.1%. Work on `COC(=O)c1c(N)n(-c2cc(Cl)cc(Cl)c2)c2nc3ccccc3nc12` yielded an inhibition of -7.14%.
